Data published in the RNAGym collection of RNA variant scans (doi:10.7554/elife.90254).
The source gives no read counts; variants with many changes may rest on few reads.

B1: LINE1-full (parent)
chain: UACGUAGGUGGUUUUCCCCUGAUAGUGCUAAGGGGGCCUGGAAGUUUGGACUGGGCAGAGCUCAACACAGCGUGGCAAAGUGGCUGUGGCUAGACUGCCUCUCUGGAUUCCUCGUCACUCAGCAGGGCAUCUCUGAGAGAAAUGCC

Variants of: B1
Assay: self-cleavage, relative activity (ratio to wild type); higher = more cleavage; in vitro, sequencing; the parent is a self-cleaving ribozyme

Row | Variant | self-cleavage
1 | U62C U73C U132A | 0
2 | A59G U81A A136U A142G | 0.07
3 | A64G A77U U81C U109A | 0.3
4 | C61U U73A U96C | 0.01
5 | A64C A92U A140G | 0.15
6 | A64U U102C A141G | 0.44
7 | A59G A65G U115C | 0.57
8 | A59G U62A U115C | 0
9 | U62A U87C U132A | 0.05
10 | U62C A77G C145U | 0.04
11 | U62A A79G U130C | 0.07
12 | A64U A69G U130C | 0.45
13 | U62G U112C G127A | 0.12
14 | U62C U87A U143A | 0.05
15 | A64G A77G U81A U102A A138G | 1.23
16 | A59G U100C A124G A140G | 0
17 | A64U U109A A142G | 0.34
18 | A59G A79G U81A U102C | 0.17
19 | A64G A107G U134C | 0.45
20 | U62C A117U A136G | 0
21 | A59C U73C U119A | 0.66
22 | U62C A92U U115A | 0.02
23 | U62A U73A A79G | 0.08
24 | A64U U112C U115C A117C | 1.01

Row | Variant | self-cleavage
25 | A64U U87A U104C | 0.04
26 | U62C U108C C113U | 0.03
27 | U62A C131U U134C | 0.03
28 | A59G U81C U87A U108G | 0
29 | C61U C68U U102C | 0
30 | A64U A77G U91C | 0.15
31 | G60A A67G U109C U115C | 0
32 | A59U A67G C101U G122C U132A | 0.4
33 | U62A A79G U81A U130C | 0
34 | A59G A77U A92U | 0.25
35 | A59U U96C U100C | 0.52
36 | A64U U102C A140U | 0.33
37 | A64C U112C A121U A129G | 0.35
38 | A59G G74A U96C | 0.02
39 | U62C C98G U143A | 0.27
40 | C63U U100C A136G A140G | 0.43
41 | U62C U85G A117G A138G | 0
42 | A64G C116U A141G | 0.29
43 | A59G A78U G82A | 0.09
44 | A59G A69G C90U | 0.05
45 | U62C A65U U85C | 0.03
46 | U62C G70U A79U U132C | 0.1
47 | U62C A79U U108C | 0.03
48 | U62A A124U A129G U143C | 0

Row | Variant | self-cleavage
49 | U62C U91A A117U | 0.01
50 | U62C A65G A78G | 0
51 | A64U A69G U132C | 0.18
52 | A64G U102A A140G | 0.15
53 | G60C U87C A129G A138G | 0.08
54 | A59C G88A A94G | 0.34
55 | U62C U104C A129G | 0
56 | A59U A65G C113U | 0
57 | A59G U62C U134A U143A | 0.06
58 | A64G A77G U112C A136G | 0.35
59 | A59U U104C A129G | 2.91
60 | A59C U73C A78G A141G | 1.15
61 | U62C A64U A65G G122C | 0.05
62 | U62A U85A U143C | 0.02
63 | A64U U81C A140G | 0.64
64 | A64G C113A A141G | 0.07
65 | A64G U85C A117U | 0.12
66 | A59G U73C A138U | 0.16
67 | A64G C90A C120U | 0
68 | A64G U87A G88U | 0.03
69 | U62C U100C A129G A136U | 0
70 | U62C A67G C113A G125U | 0
71 | A59G U73C C95A | 0.11
72 | A64U A77U A94G U104G | 0.17

Row | Variant | self-cleavage
73 | C61U A107U U132C A142G | 0.02
74 | U62C G72A A77G | 0.03
75 | U62A A65G A124C | 0
76 | U62C U87C G125C | 0.51
77 | U62C A67G A77U U109C | 0
78 | A59G U108A A141G | 0
79 | A64G A67G U119C | 0
80 | C63U U85C U112C A117U A141G U143C | 0.06
81 | A64G G93A U134C A140G U143C | 0.02
82 | A64G U87C C95U | 0
83 | A64G C128G U143A | 0.12
84 | A59G U87C U112A | 0.13
85 | U62C A65G A124G | 0.2
86 | G60A A117G U132C | 0.04
87 | A59U A92U A124G | 0
88 | A64G A79G U119C | 0.45
89 | A59G A65G G126A U132C U143C | 0.13
90 | U62C A69U U115A U132C | 0.05
91 | A64U U108A U143C | 0.58
92 | A59U A69U A77G U96C U119C | 0.5
93 | G60U U108C A142G | 0.05
94 | U62C C95G U104C A129C | 0
95 | U62C A69G A141G | 0.08
96 | A59U U115C A136G | 1.48

Row | Variant | self-cleavage
97 | A64G U96C A129G | 1.53
98 | A64G G88A U102A A136G | 0.04
99 | U62A A79U A121U | 0.01
100 | G60A U62C U81C | 0
101 | U62C C66U U96A U119C A136G A141G | 0.02
102 | A64C U87C A141G | 0.3
103 | A64G A69U A141G | 0.01
104 | A64G A77G U81C | 0
105 | U62C A65G A67U U100C | 0
106 | U62C A64U A141G | 0.06
107 | A64G A79G G106U | 0.2
108 | A59G U119C A141G | 0
109 | U62A A64U A79U U96A A124G G125U | 0.02
110 | U62C U87A A141G | 0.05
111 | U62A U73C A138G A140U | 0.1
112 | A64G A94G A141G | 0.24
113 | A59G G88U G114A | 0.02
114 | C63U A65U U85A | 0.05
115 | A59G U73A U87A U132C A140G | 0
116 | A59G U100C C110U A124G | 0.11
117 | U62C G72A U87A A121G A124U A142G | 0.01
118 | A59G A64U G126U | 0.08
119 | U62C U87G G122U | 0.03
120 | A59G U85C G122U | 0.03

Row | Variant | self-cleavage
121 | U62C C111U U112C | 0.06
122 | A64U G72A U96A A117G U132C | 0
123 | C63A A94C A107U | 0.02
124 | U62A A77G U85G G139A | 0
125 | A64U U109A U115C A117G | 0.42
126 | A64U A77G A94G | 0.28
127 | A59G A64G U73A | 0.04
128 | U62A U134C A142G | 0.07
129 | U62C C90U U143C | 0.04
130 | G58U U100C U112C A136U | 0.05
131 | U62C U81A A129G | 0.01
132 | C63U A107G A124G | 0.25
133 | A64U U87C A129G A142G | 0
134 | A64G U73A U85C U102C A141G | 0.17
135 | A59G A124G A136G | 0.07
136 | U62C A79G U119A U143C | 0.07
137 | A64G U134C A142G | 0.21
138 | A59U A64G A79G A138G | 0.11
139 | A64U A117G G125A | 0.6
140 | U62A A79U U102C A129U | 0.07
141 | A64U U96A C118A U132C | 0.01
142 | A59U U109C U115C | 0.84
143 | A59U A64U U132C | 0.68
144 | U62C U96C A136G | 0.07

Row | Variant | self-cleavage
145 | U62A A67G U96C U100C | 0
146 | U62C U96A A138G | 0.03
147 | A64G A141G U143C | 0.21
148 | U62A A69G G89A | 0.06
149 | U62G A65G A107U | 0
150 | U62C A94U U112A U134C | 0
151 | A64U G80U U102C U109G | 0.48
152 | U62C U96A A121U U132C | 0.08
153 | U62A A69U A140G | 0.03
154 | A59G C111U A138U | 0.04
155 | U62C C76U U87C | 0.03
156 | C63U A107C U112C A138G | 0.39
157 | A64G U115A A141G | 0.19
158 | A64U U112C G114U | 0.51
159 | U62A C98U A121G | 0.04
160 | A59G U115C A136U | 0.1
161 | A64U A69G U102C | 0.09
162 | U62C C71U U115C | 0
163 | A64G U73C C98A | 0
164 | A59U A79G U104C A107U | 0.74
165 | U62C G97U C116A A142G | 0.02
166 | G60A C68U U73A U85C U130C | 0.01
167 | U62C U102G A141G | 0
